# According to PubChem BioAssay (NCI):
#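 These data come from cells grown in 96-well plates and exposed to compound for 48 hours at five concentrations. Here, GI50 denotes the concentration required for 50% inhibition of growth. TGI marks complete inhibition of growth.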
# Tested on: NCI-H322M lung
# Assay: inhibition of tumour cell growth, NCI panel, 48 h
SMILES,GI50 [µM],TGI [µM]
Cc1ccc(Cl)cc1NC(=O)Nc1nc2ccc([N+](=O)[O-])cc2s1,3.07,11.1
C#C[C@]1(O)CC[C@H]2[C@@H]3CC=C4c5sc(Nc6cc(C)cc(C)n6)nc5CC[C@]4(C)[C@H]3CC[C@@]21C,> 100,> 100
Nc1cc(-c2c[nH]c3ccc(Br)cc23)nc2cc(-c3c[nH]c4ccccc34)nn12,3.63,15.3
COc1ccc(/C=C/c2n(Cc3ccc4ccccc4c3)c3ccccc3[n+]2Cc2ccc3ccccc3c2)cc1,1.35,2.64
COc1ccccc1-n1cc(C#N)c(N)c1C(=O)c1ccc(Cl)cc1Cl,7.65,> 100
CN1C(=O)/C(=C/c2ccc3ncsc3c2)NC1=NC12CC3CC(CC(O)(C3)C1)C2,2.68,> 100
